First the molecules themselves.
B1: TPR 5TU (parent)
chain: GGAUCUUCUCGAUCUAACAAAAAAGACAAAUCUGCCACAAAGCUUGAGAGCAUCUUCGGAUGCAGAGGCGGCAGCCUUCGGUGGCGCGAUAGCGCCAACGUUCUCAACUAUGACACGCAAAACGCGUGCUCCGUUGAAUGGAGUUUAUCAUG

The record followed here is the RNAGym collection of RNA variant scans (doi:10.1073/pnas.2313332121).

Variants at the floor of the assay are shown more often than the library holds them.

In this data set the parent is B1. Description: polymerase ribozyme fitness, log enrichment relative to wild type (log ratio); higher = more active; in vitro selection for triplet polymerase activity. In outline: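 Mutant libraries for each subunit of a heterodimeric triplet polymerase ribozyme were made by PCR and then transcribed. Each library underwent one round of in vitro selection in triplicate: annealing with a biotinylated primer, the partner subunit and triplets, frozen incubation at −7 °C, gel excision of extended constructs, streptavidin-bead capture and RT-PCR. Input and output libraries were Illumina-sequenced, and only genotypes with ≥10 input reads and ≥1 read per output were kept. Fitness is the logarithm, base 2, of genotype enrichment over wild-type enrichment, computed from inverse-variance-weighted replicate averages.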
Consider GGAUCUUCUCGAUCUAACAAAAAAGACAAAUCUGCUACAAAGCUUGAGAGCAUCUUCGGAUGCAGAGGCGGCAGCCUUCCGUGGUGCGAUAGCGCCAACGUUCUCAACUAUGACUCGCAAAACGCGUGCUCCGUUGAAUGGAGUUUAUCAUG [C36U G80C C85U A115U], for which the “polymerase ribozyme fitness (log ratio)” value was no more than -4.2.
With GGAUCUUCUCGAUCUAACAAAAAAGACAAAUCUGCUACAAAGCUUGAGAGCAUCUUCGGAUGCAGAGGCGGCAACCUUCGGUGGCGCGAUAGCGCCAACGUUCUCAACUAUGACACGCAAAACGCGUGCUCCGUUGAAUGGAGUUUAUCAUG [C36U G74A] the figure was no more than -4.2.
GGAUCUUCUCGAUCUAACAAAAAAGACAAAUCUGCUACAAAGCAUGAGAGCAUCUUCAGAUGCAGAGGCGGCAGCCUUCGGUGGGGCGAUAGCGCCAACGUUCUCAACUAUGACACAUACAACGCGUGCUCCGUUGAAUGGAGUUUAUGAUG [C36U U44A G58A C85G G117A C118U A120C C149G]: the “polymerase ribozyme fitness (log ratio)” value was no more than -4.2.
The figure for GGAUCUUCUCGAUCUAACAAAAAAGACAAAUCUGCCCCAUAGCUUGAGAGCAUCUUCGGAUGCAGAGGCGGCAGCCUUCGGUAGCGCGAUAGGGCCAACGUUCUCAACUAUGACACGCAAAACGCGUGCUCCGUUGAAUGGGGUUUAUCAUG [A37C A40U G83A C93G A142G] is no more than -4.2.
With GGAUCUUCUCGAUCUAACAAAAAAGACAAAUCUGCUACAAAGCUUGAGAGCAUCCUCGGAUGCAGAGGCGGAAGCCUUCGUUUGCGCGAUAGCGCCAACGUUCUCAACUAUGACACGCAAAACGCGUGCUCCGUUGAAUGGAGUUUAUCAGG [C36U U55C C72A G81U G83U U151G] the figure was no more than -4.2.
The figure for GGAUCUUCUCGAUCUAACAAAAAAGACAAAUCUGCCCCAACGAUUGAGCGCAACUUCGGAUGCAGAGGCGGCAGCCUUCGGUGGCGCGAUAGCCCCAACGUUCUCAACUAUGACACGCAAAACGCGUGCUCCGUUGAAUGGAGUUUAUCAUG [A37C A41C C43A A49C U53A G94C] is no more than -4.2; for GGAUCUUCUCGAUCUAACAAAAAAGACAAAUCUGCCCCACAGCUUGAGAGCAUCUUCGGAUGCAGUGGCGGCAGGCUUCGGUGGCGCGAUAGCUCCAACGUUCUCAACUAUGACACGCAGAACGCGUGCUGCGUUGAAUGAAGUUUAUCAUG [A37C A40C A66U C75G G94U A120G C131G G141A] it is no more than -4.2; for GGAUCUUCUCGAUCUAACAAAAAAGACAAAUCUGCUACAAAGCUUGAGAGCAGCUUCGGAUGCAGAGGCGGCAGCCUUCGGUCGCGCGAUAGCGCCAACGUUCUCAACUAUGACACGCAAAAGGCGUGCUCCGUUGAAUGGAGUUUAUCAUG [C36U U53G G83C C123G] it is no more than -4.2.
GGAUCUUCUCGAUCUAACAAAAAAGACAAAUCUGCUACAAAGCUUGAGAGCAUCUUCGGAUGCAGAGGCGGCAGCCUUCGGUUGCGCGAUAGCGCCAACGUGCUCAACUAUGACACGCAAAACGCGUGCUCCGUUGAGUGGAGUUUAUCAUG [C36U G83U U102G A138G]: the “polymerase ribozyme fitness (log ratio)” value is no more than -4.2.
The figure for GGAUCUUCUCGAUCUAACAAAAAAGACAAAUCUGCUACAAAGCUUGAGAGCAUCUUCGGAUGCAGAGGCGGCAGCCUUCGGUGGCGCGAUAGCACCAACGUUCUCAACUAUGACACGCAAAACGAGUGCUCCGUUGAAUGGAGUUUAUCAUG [C36U G94A C125A] is -1.63.
The figure for GGAUCUUCUCGAUCUAACAAAAAAGACAAAUCUGCUACAAAGCUUGAGAGCAUCUUCGGAUGCAGAUGCGGCAGCCUUCGGUGGCGCAAUAGCGCCAACGUUCUCAACUAUGACACGCAAAACGCGUGCUCCGUUGAAUGGAGUUUAUCAUG [C36U G67U G88A] is no more than -4.2.
The figure for GGAUCUUCUCGAUCUAACAAAAAAGACAAAUCUGCCCCCAAGCUUGAGAGCAUCUUCGGAUGCAGAGGCGGCAGCCUUCGGUGGCGCGAUAGCGUCAACGUUCUCAACUAUGACACGCAAAACGCGUGCUCCUUUGAAUGGAGUUUAUCAUG [A37C A39C C95U G133U] is no more than -4.2.
GGAUCUUCUCGAUCUAACAAAAAAGACAAAUCUGCUACAAAGCUUGAGACCGUCUUCGGAUGCAGAGGCGGCAGCCUUCGGUGGCGCGAUAGUCCCAAAGUUCUCAACUAUGACACGCAAAACGCGUGCUCCGUUAAAUGGAGUUUAUCAUG [C36U G50C A52G C93U G94C C99A G136A]: the “polymerase ribozyme fitness (log ratio)” value was no more than -4.2.
The figure for GGAUCUUCUCGAUCUAACAAAAAAGACAAAUCUGCUACAAAGCUUGAGAGCAUCUUCGGAUGCAGAGGCGGCAGCCUUCAGUGGCGCCAUAGCGCCAACGUUCUCAACUAUGACACGCAAAACGCGUGCUCCGUUGCAUGGAGUUUAUCAUG [C36U G80A G88C A137C] is no more than -4.2; for GGAUCUUCUCGAUCUAACAAAAAAGACAAAUCUGCUACAAAGCUUGAGAGCAUCUUCCGAUGCAGAGGCGGCAGCCUUCGGUGGCGCGAUAGCGCCAACGUUCUCAACUAUGACAAGCAAAACGCGAGCUCCGGUGAAUGGAGUUUAUCAUG [C36U G58C C116A U127A U134G] it is no more than -4.2; for GGAUCUUCUCGAUCUAACAAAAAAGACAAAUCUGCUACAAAGCUUGAGAGCAUCUUCGGAUGCAGAGGCGGCAGCCUUCGGUGGCGCGAUAGCGCCAACGUUCUCAACUAUGACACGCAAAACGCGUGCUCCGUUGAAUGGAGUUUAUCAGG [C36U U151G] it is no more than -4.2.
The figure for GGAUCUUCUCGAUCUAACAAAAAAGACAAAUCUGCCCCACAGCUUGAGAGCAUCUUCGGAUGCAGAGGCGGCAGCCUUCGGUGGCCCGAUAGCGCCAACGUUGUCAACUAUGACACGCAAAACGCAUGCUCCGUUGAAUGGAGUUUAUCAUG [A37C A40C G86C C103G G126A] is no more than -4.2.
With GGAUCUUCUCGAUCUAACAAAAAAGACAAAUCUGCUACAAAGCUUGAGAGCAUCUACGGAUGCAGAGGCGGCAGCCUUCGGUGGCGCGAUAGCGGCAACGUUCUCAACUAUGACACGCAAAACGCGUGCUCCGUUGAAUGGCGUUUAACAUG [C36U U56A C95G A142C U148A] the figure was no more than -4.2.
On to GGAUCUUCUCGAUCUAACAAAAAAGACAAAUCUGCUACAAAGCUUGAGAGCAUCUUCGGAUGCAGAGGCGGCAGCCUUCCGUGGCGCGAGAGCGCCAACGUUCUCAACUAUGACACGCAAAACGCGUGCUCCGUUGAAUGGAGUUUAUCAUG [C36U G80C U90G], for which the “polymerase ribozyme fitness (log ratio)” value was no more than -4.2.
